Test results published in PubChem BioAssay AID651820 (National Center for Advancing Translational Sciences (NCATS), 2012).
Screen size: about 340,000 compounds; about 12,000 (3.5%) were called active. The inconclusive results got no clear call from the source; some entries with a clear call stand among them for comparison. The call rests on the fitted dose curve; in most records, active means well fitted inhibition curve with a large enough effect; inconclusive means small, poorly fitted or top-dose-only effect, or another doubt; inactive means no such curve, though single readings can be large or run the other way. No potency is given beside an inconclusive call; the fits are too rough.

test: qHTS Assay for Inhibitors of Hepatitis C Virus (HCV); settings: Huh7.5.1 HCVcc-Cre (HCVcc is cell-culture hepatitis C virus) infection, luciferase reporter, 44 h; activity change, negative = inhibition: at 41.8 µM (top of the series)
Method in brief: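 Infectious HCV cell culture screen: compound-treated cells (1,000/well, pre-plated 4 h) are infected with HCVcc-Cre at roughly 0.5 moi and grown 44 h. Infection is quantified by luciferase signal after 15 min substrate incubation at room temperature.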
On the % scale 0 is the no-effect control and ±100 the full control effect; potency means the concentration at half of the fitted maximal effect; tags describe the fitted curve by direction and shape.

Structure (SMILES) | Potency | activity change, negative = inhibition
CCn1c(COc2ccc(C)cc2)nnc1SCc1ccc(C#N)cc1 | inconclusive [inhibitor, single point] | –
CC1CCN(c2nc3c(c(=O)n(C)c(=O)n3C)n2CCSc2nc3ccccc3s2)CC1 | active: 11.2 µM | –
Cc1cc2cc(CNC(=O)NC3CCCCC3)ccc2n1C | inconclusive [inhibitor, single point] | –
CCCCOC(=O)C1CN(c2ccccc2)N=C1C(C)=O (stereo not drawn) | inconclusive [inhibitor, single point] | –
CCc1nnc(NC(=O)CCC(=O)NC2CCCCCC2)s1 | – | inactive: -1.74%
CCc1nnc(NC(=S)Nc2ccccc2)s1 | – | inactive: 24.6%
O=C(NN1CCOCC1)c1cn(-c2ccccc2)nc1-c1cccs1 | – | inactive: -13.8%
CC(C)Oc1ccc(Br)cc1/C=N\NC(N)=S | inconclusive [inhibitor, partial curve] | –
Fc1ccc(C(CNC(=S)NC2CCCCC2)N2CCOCC2)cc1 (stereo not drawn) | inconclusive [inhibitor, single point] | –
O=C(c1ccco1)N1CCN(C(=S)Nc2ccc(Br)cc2Cl)CC1 | inconclusive [inhibitor, single point] | –
CCN1CCN(CCNC(=O)c2ccc(/C=C3/Sc4ccccc4N(Cc4ccccc4C)C3=O)cc2)CC1 | active: 6.31 µM | –
CCn1nc(C(=O)Nc2ccccc2N2CCCC2)c2ccccc2c1=O | active: 10 µM | –
CC1(C)CC(=O)c2ccc(OCc3ccc([N+](=O)[O-])cc3)cc2O1 | – | inactive: -17.2%
COc1ccc(CCNC(=O)C2CC3Cn4c(nc5ccccc54)C3N2Cc2ccccc2)cc1 (stereo not drawn) | – | inactive: -5.68%
CCOc1ccccc1CNC(=O)C1CCN(C(=O)c2sccc2-n2cccc2)CC1 | inconclusive [inhibitor, partial curve] | –
O=C1CCCN1CCCNc1ncnc2c1[nH]c1ccc(Cl)cc12 | inconclusive [inhibitor, single point] | –
CC(C)N(Cc1ccccc1)C(=O)c1ccc2nsnc2c1 | – | inactive: 11.7%
COc1ccc(CCNC(=O)C2CC3Cn4c(nc5cc(C)c(C)cc54)C3N2C)cc1 (stereo not drawn) | inconclusive [inhibitor, partial curve] | –
CCOc1ccc(NC(=O)Nc2ccc3c(c2)N(C)C(=O)CS3)cc1 | inconclusive [inhibitor, single point] | –
Cn1c(-c2ccsc2)c(-c2cccs2)c2cc(-c3cccc4[nH]ccc34)ccc21 | inconclusive [inhibitor, single point] | –
Cc1ccc(NC(=S)c2nc3ccccc3[nH]2)c(C)c1 | – | inactive: -14.6%
COc1cc(/C=N/NC(=O)c2c(C)nc3ccc(Cl)cn23)cc(OC)c1OC | inconclusive [inhibitor, partial curve, poor fit] | –
O=C(Nc1ncc(Cc2ccccc2Cl)s1)C1=NCCN1 | inconclusive [inhibitor, single point] | –
Cc1ccc(NC(=O)CCN2CCN(C)CC2)cc1 | – | inactive: 26.4%

Structure (SMILES) | Potency | activity change, negative = inhibition
CCCCN(C)C(=O)c1cc2cc3ccc(OC)cc3nc2s1 | active: 11.2 µM | –
O=C(CN1CCCSc2ccccc21)N1CCN(S(=O)(=O)c2ccccc2)CC1 | inconclusive [inhibitor, full curve] | –
O=C(CSc1nc2ccccc2o1)Nc1ccc(N2CCOCC2)c(Cl)c1 | inconclusive [inhibitor, single point] | –
O=C(N/N=C\c1cc(Br)cs1)C1COc2ccccc2O1 (stereo not drawn) | inconclusive [inhibitor, single point] | –
S=c1[nH]nc(C2CCCCC2)o1 | – | inactive: 13.3%
COc1ccc(CN(C)C(=O)c2[nH]c(C)c(C(C)=O)c2C)c(OC)c1OC | inconclusive [inhibitor, partial curve, poor fit] | –
CCCCOc1ccc(CSc2n[nH]c(C)n2)cc1 | inconclusive [inhibitor, single point] | –
O=C(Nc1cccnc1)c1ccc(Cl)c(S(=O)(=O)N2CCCCC2)c1 | inconclusive [inhibitor, single point] | –
Cc1cccc(-c2nc(CS(=O)CC(=O)N3CCc4ccccc4C3)c(C)o2)c1 (stereo not drawn) | inconclusive [inhibitor, single point] | –
Oc1ccccc1C1NN=C(c2ccccc2)S1 (stereo not drawn) | – | inactive: -19%
CC(C(=O)NCCc1ccc(Cl)cc1)n1c(=O)c2cccn2c2cccnc21 (stereo not drawn) | active: 11.2 µM | –
Cc1cc(C)cc(C(=O)N2CCCCC2)c1 | – | inactive: -0.93%
COc1cccc(/C=C/C(=O)OCC(=O)c2c[nH]c3ccccc23)c1OC | inconclusive [inhibitor, partial curve] | –
COc1ccc(-n2c(C)cc(/C=C3\C(=N)N4N=C(CC(=O)N5CCOCC5)SC4=NC3=O)c2C)cc1 | – | inactive: -4.62%
CCOc1ccccc1NC(=O)C(OC(=O)C1CC1)c1ccccc1 (stereo not drawn) | – | inactive: -14%
NS(=O)(=O)c1ccc(NC(=O)CCC(=O)c2ccc(Cl)s2)cc1 | – | inactive: 8.44%
CCCCCSc1cc(OC)c(CCN(C)C)cc1OC | inconclusive [inhibitor, single point] | –
CSCCC(NS(=O)(=O)c1ccc(C)cc1)C(=O)NC1CCCCCC1 (stereo not drawn) | – | inactive: -28.6%
CC(=O)/C(=N\Nc1ccccc1Cl)Sc1nnc(-c2ccccc2)n1-c1ccccc1 | inconclusive [inhibitor, partial curve] | –
CCCNC(=O)c1ccc2nc(-c3ccccc3)c(-c3ccccc3)nc2c1 | inconclusive [inhibitor, single point] | –
Nc1cc(C(=O)OCC(=O)NCCNC(=O)COC(=O)c2ccc(Cl)c(N)c2)ccc1Cl | – | inactive: 7.97%
CS(=O)(=O)N1CCN(c2ccccc2NC(=O)c2ccc3c(c2)OCCO3)CC1 | – | inactive: -22.4%
O=C(Nc1cc(S(=O)(=O)N2CCOCC2)ccc1N1CCCCC1)c1ccccc1Br | inconclusive [inhibitor, single point] | –
Cn1cc([N+](=O)[O-])c(C(=O)Nc2ccc(C3CCCCC3)cc2)n1 | inconclusive [inhibitor, partial curve] | –
